Measurements taken from PubChem BioAssay AID2147 (National Center for Advancing Translational Sciences (NCATS), 2009).
In all, about 230,000 compounds went through this assay and about 3,600 (1.6%) were called active. This list was built around the results that the source calls inconclusive (neither active nor inactive); the mix of calls is not that of the screen. Calls come from the whole dose curve; as a rule, active = well fitted inhibition curve with a large enough effect (not every such curve was filed as active); inconclusive = small, poorly fitted or top-dose-only effect, or another doubt; inactive = no such curve, though single readings can be large or run the other way. Where the call is inconclusive, the potency comes from a doubtful curve fit.

What follows are compounds tested against Lysine-specific demethylase 4E (Homo sapiens) (UniProt B2RXH2) (assay: qHTS Assay for Inhibitors of Human Jumonji Domain Containing 2E (JMJD2E)). Settings: JMJD2E catalytic domain, FDH-coupled NADH fluorescence (FDH is formaldehyde dehydrogenase); series mostly up to 57.1 µM; activity change, negative = inhibition: at the top concentration.
UniProt B2RXH2, sequence (B2RXH2 whole entry, looked up, the tested form may be a part): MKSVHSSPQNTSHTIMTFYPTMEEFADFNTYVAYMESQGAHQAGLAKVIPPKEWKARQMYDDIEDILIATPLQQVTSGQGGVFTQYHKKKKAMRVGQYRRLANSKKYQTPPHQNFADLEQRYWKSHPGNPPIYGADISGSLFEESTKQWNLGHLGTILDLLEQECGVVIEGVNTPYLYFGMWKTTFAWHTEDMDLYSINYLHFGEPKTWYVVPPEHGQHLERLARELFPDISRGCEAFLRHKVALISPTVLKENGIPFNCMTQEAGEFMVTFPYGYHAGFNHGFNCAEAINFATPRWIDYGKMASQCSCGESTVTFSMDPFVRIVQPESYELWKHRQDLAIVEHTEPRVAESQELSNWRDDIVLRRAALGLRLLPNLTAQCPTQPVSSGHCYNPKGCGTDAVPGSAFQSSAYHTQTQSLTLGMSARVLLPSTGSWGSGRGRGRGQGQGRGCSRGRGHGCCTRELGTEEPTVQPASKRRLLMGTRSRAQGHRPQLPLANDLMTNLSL
Note: nearly all actives have a fitted effect of over 50% in size.
Potency is the fitted concentration of half-maximal effect; tags give direction and shape of the fitted curve.
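Throughout, for activity change, negative = inhibition: 0% = wells with enzyme and -100% = buffer wells without enzyme.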

Compound	Potency	activity change, negative = inhibition
Cc1cc2cc(CN(CCCN3CCOCC3)C(=O)NC3CCCCC3)c(=O)[nH]c2cc1C	inconclusive: 31.6 µM [inhibitor, partial curve]	
Cc1cc(C)c(S(=O)(=O)Nc2ccc(-c3cn4ccccc4n3)cc2)c(C)c1	inconclusive: 39.8 µM [inhibitor, single point]	
O=C(CP(=O)(c1ccccc1)c1ccccc1)N/N=C/c1cc(Br)cc(Br)c1O	inconclusive: 31.6 µM [inhibitor, single point]	
CCn1c(/C(C#N)=N/O)nc2ccccc21		inactive: 0.208%
CCN1CCN(C(c2cccnc2)c2cc(Cl)c3cccnc3c2O)CC1 (stereo not given)	inconclusive: 31.6 µM [inhibitor, single point]	
Cc1cccc(CNc2ncnc3ccc(-c4ccoc4)cc23)c1	inconclusive: 25.1 µM [inhibitor, partial curve]	
COC(=O)c1sccc1N/N=C(\C)c1ccc(F)c(Cl)c1	inconclusive: 35.5 µM [inhibitor, single point]	
Cc1cccn2c(=O)c3cc(C#N)c(=O)n(Cc4cccnc4)c3nc12	inconclusive: 12.6 µM [inhibitor, partial curve]	
Cc1cc(N=Cc2c(O)n(-c3ccc4c(c3)OCO4)c(=O)c3ccccc23)ccn1	inconclusive: 20 µM [inhibitor, partial curve]	
COC(=O)c1cc2c(C)cc3ccc(C)cn3c-2c1C(=O)OC	inconclusive: 20 µM [inhibitor, partial curve]	
CCCC1(C(=O)OCC)NC(c2ccc(N(C)C)cc2)C2C(=O)N(c3ccc(F)cc3)C(=O)C21 (stereo not given)	inconclusive: 35.5 µM [inhibitor, single point]	
COc1ccc2c(c1)c(C(O)CN1CCC3(CC1)OCCO3)c(C)n2C (stereo not given)	inconclusive: 28.2 µM [inhibitor, single point]	
CCOC(=O)Cc1csc(NC(=O)/C=C\c2ccccc2Cl)n1	inconclusive: 39.8 µM [inhibitor, single point]	
CCCc1nc(NCc2ccco2)c(C#N)c2c1COC(C)(C)C2	inconclusive: 22.4 µM [inhibitor, partial curve]	
COc1ccccc1-c1cc(C(F)(F)F)nc(S(=O)(=O)CCCC(=O)NC(C)C)n1	inconclusive: 25.1 µM [inhibitor, single point]	
O=C(O)C1CCC(Cn2c(SCc3cc(=O)n4ccccc4n3)nc3ccsc3c2=O)CC1 (stereo not given)	inconclusive: 28.2 µM [inhibitor, partial curve]	
CCC(C)(C)NC(=O)C1CCN(c2nc(C)cc(C)n2)CC1	inconclusive: 31.6 µM [inhibitor, partial curve]	
CC(=O)OC[C@H]1O[C@H](CCO/N=C(\C)CCN2CCCc3nc(C)c(C)cc32)C=C[C@@H]1OC(C)=O	inconclusive: 31.6 µM [inhibitor, partial curve]	
Cc1cccn2cc(CNC(=O)c3ccco3)nc12	inconclusive: 39.8 µM [inhibitor, single point]	
COC(=O)N1CCCc2cc(C)ccc21	inconclusive: 35.5 µM [inhibitor, single point]	
Cc1ccc(/C=C/C(=O)Nc2ccc(N(C)C)cc2)o1		inactive: 0.109%
Cc1nc(SCc2ccccc2F)c2cnn(-c3ccccc3)c2n1	inconclusive: 28.2 µM [inhibitor, single point]	
CC1CN(C(=O)COC(=O)c2ccc(NC(=O)CC#N)cc2)CC(C)O1 (stereo not given)		inactive: -9.77%
COc1ccc(OC)c(NC=C2C(=O)OC3(CCCCC3)OC2=O)c1	inconclusive: 28.2 µM [inhibitor, partial curve]	

Compound	Potency	activity change, negative = inhibition
COc1ccccc1NC(=O)C1CCCN(c2nc(C)cc(C)n2)C1 (stereo not given)	inconclusive: 25.1 µM [inhibitor, single point]	
O=C(c1ccc(Cl)cc1)N1CCC(O)(CSc2ccc(Cl)cc2Cl)CC1		inactive: -9.37%
COC(=O)c1ccc(NC(=S)NC(=O)c2cc(-c3ccccc3)nc3ccccc23)cc1		inactive: -10.5%
CC(=O)C1=C(O)C(=O)N(C)C1c1ccccc1[N+](=O)[O-] (stereo not given)	inconclusive: 28.2 µM [inhibitor, single point]	
O=C(COC(=O)c1cc(-c2ccncc2)nc2ccccc12)Nc1ccc2c(c1)OCO2		inactive: -22.3%
CNc1nnc(-c2cc3ccccc3oc2=O)s1	inconclusive: 22.4 µM [inhibitor, partial curve]	
COc1ccc2c(c1)C(=C(C#N)C#N)C(=O)N2CCc1ccccc1	inconclusive: 39.8 µM [inhibitor, single point]	
COC(=O)c1cc(O)cc(OC)c1Oc1cc(C)cc(O)c1C(=O)O	inconclusive: 28.2 µM [inhibitor, single point]	
CC(C)NC(=S)N/N=C/c1cc(Br)ccc1O	active: 25.1 µM	
O=C(NCc1cccs1)c1cc2c(s1)-c1ccccc1OC2	inconclusive: 35.5 µM [inhibitor, partial curve]	
CNS(=O)(=O)c1ccc(C)cc1		inactive: 6.65%
c1cncc(CNc2ccc3c(c2)OCO3)c1	inconclusive: 31.6 µM [inhibitor, single point]	
Cc1ccc(C)c(NC(=O)CSc2nc(N)c(NC(=O)c3cccs3)c(=O)[nH]2)c1	inconclusive: 39.8 µM [inhibitor, single point]	
Brc1ccc(CSc2nnc3ccccn23)cc1	inconclusive: 25.1 µM [inhibitor, single point]	
O=C(NCc1n[nH]c(=S)n1-c1ccc(F)cc1)c1ccc(S(=O)(=O)N2CCOCC2)cc1		inactive: -3.58%
CC(C)OCCCNc1ncc2c(n1)CC(c1ccccc1)CC2=O (stereo not given)	inconclusive: 25.1 µM [inhibitor, single point]	
CN(CC(=O)N1CCN(c2ccccn2)CC1)S(=O)(=O)c1ccccc1	inconclusive: 25.1 µM [inhibitor, partial curve]	
Cc1cccc2cc(CN(Cc3cccs3)S(=O)(=O)c3ccc4c(c3)OCCO4)c(=O)[nH]c12	inconclusive: 35.5 µM [inhibitor, single point]	
O=[N+]([O-])c1ccc(Sc2cccc3cccnc23)c([N+](=O)[O-])c1		inactive: 10.3%
O=C(OCCN1CCCCC1)c1ccc(Cl)cc1		inactive: 6.09%
CCOC(=O)C(=NC1CCS(=O)(=O)C1)NNc1ccccc1Cl (stereo not given)	inconclusive: 14.1 µM [inhibitor, partial curve]	
COc1ccc(C(=O)On2c(-c3ccc(Br)cc3)nc3ccccc3c2=O)cc1		inactive: 0.523%
Cc1c(-c2ccccc2)nc(N)c(C#N)c1-c1cccs1	inconclusive: 35.5 µM [inhibitor, single point]	
O=C(c1cccs1)N1CCN(Cc2ccccc2[N+](=O)[O-])CC1	inconclusive: 28.2 µM [inhibitor, single point]	

Compound	Potency	activity change, negative = inhibition
Cc1c([N+](=O)[O-])c(C/C=N/O)nn1C		inactive: 2.95%
CC(=O)c1sc2nc(CSc3nncn3C)[nH]c(=O)c2c1C	inconclusive: 14.1 µM [inhibitor, partial curve]	
O=C(O)COc1ccc(/C=N/NC(=O)c2ccc(-c3csc(Nc4ccc(Cl)cc4)n3)cc2)cc1	inconclusive: 22.4 µM [inhibitor, partial curve]	
N=C1C(c2ccccc2)=C(O)CN1NC(=O)c1ccccc1		inactive: 1.87%
COCCn1c(SCC(N)=O)nc2c(c1=O)SC(C)C2 (stereo not given)	inconclusive: 39.8 µM [inhibitor, single point]	
Cc1ccc(NC(=O)c2cc3cc(OC(F)(F)F)ccc3[nH]2)cc1	inconclusive: 25.1 µM [inhibitor, partial curve]	
CCc1ccc(C(O)(c2ccccc2OC)C(CN2CCOCC2)c2ccccc2)cc1 (stereo not given)		inactive: -1.56%
CN(C)c1ccc(/C=N/NC(=S)NCc2ccccc2)cc1	inconclusive: 28.2 µM [inhibitor, partial curve]	
Cc1cc(C)c2c(C)nn(C3CCCCC3)c2n1	inconclusive: 28.2 µM [inhibitor, single point]	
COc1cccc(-c2nc(Nc3ccncc3)c3ccccc3n2)c1	inconclusive: 25.1 µM [inhibitor, single point]	
Cc1ccccc1-c1nc(S(=O)(=O)c2ccc(Cl)cc2)c(NCCN2CCOCC2)o1	inconclusive: 39.8 µM [inhibitor, single point]	
Cc1cc(-c2ccccc2N)n[nH]1	inconclusive: 22.4 µM [inhibitor, partial curve]	
C=CCOc1ccccc1/C=c1\sc2nc(=O)c(C)nn2c1=O		inactive: 1.73%
CSc1nc(-c2ccc(Cl)cc2)nn1C(=O)c1ccco1	inconclusive: 7.08 µM [inhibitor, single point]	
COc1ccc(NS(=O)(=O)c2cccc(C(=O)N/N=C/c3ccc4c(c3)OCCO4)c2)cc1		inactive: -1%
COC(=O)c1cc(=O)c(O)c2c(O)c(O)ccc2c1	active: 8.91 µM	
CCOC(=O)Cn1cc(/C=C(/C#N)C(=O)NC(C)C)c2ccccc21	inconclusive: 6.31 µM [inhibitor, single point]	
CCOC(=O)CC(=O)CSc1nc2c(c(-c3cccs3)c1C#N)CCC2	inconclusive: 25.1 µM [inhibitor, single point]	
Clc1ccc(Cn2nnc(-c3ccc(N4CCOCC4)cc3)n2)cc1	inconclusive: 39.8 µM [inhibitor, single point]	
O=C(c1cc2nc(-c3ccco3)cc(C(F)(F)F)n2n1)N1CCCCCC1	inconclusive: 28.2 µM [inhibitor, partial curve]	
O=C(CSc1ccc2c(c1)OCCO2)Nc1cccnc1Cl		inactive: 1.49%
Nc1c(NCc2ccccc2)c(=O)[nH]c(=O)n1Cc1ccccc1	inconclusive: 39.8 µM [inhibitor, single point]	
